Tests used:
[1] = target: T1, WT BM3 heme domain (Priestia megaterium, UniProt P14779); experiment: biochemical; assay type: binding, Bacillus megaterium
T1 construct: The BM3 heme domain proteins (WT and the DM A82F/F87V variant) used in this study were expressed as described in our previous studies; made in house; host or cells: E. coli BL21 (DE3)
Excerpt: (§1) This leads to dioxygen (O2) binding to heme iron and to the progression of the P450 catalytic cycle that leads to monooxygenation of the substrate. […] P450 UV-visible binding assays and other spectroscopic studies using azoles are often hindered by the low solubility of many of these drugs. […] The azoles used range widely in size and structure, and contain either an imidazole or a triazole functional group (or two triazole groups in the case of fluconazole). […] Spectral binding data were fitted using hyperbolic (Michaelis-Menten)[30] or tight-binding (Morrison)[31] equations, or by using the Hill function[32] in cases where there was a clear sigmoidal dependence of heme absorbance change on azole drug concentration.
(§2) Experiments were performed using a Cary 50 UV-Visible spectrophotometer (Agilent Technologies Ltd). WT and DM heme domains at concentrations of ~2–4 μM were used, and binding titrations were done by the addition of small (typically 0.2–0.4 μL) volumes of azole ligand stocks (1, 10 or 30 mM, to minimize amounts of solvent carrier used) to a 1 mL heme domain sample in a quartz cuvette. An extinction coefficient of 95 mM^−1 cm^−1 was used for the low-spin forms of the WT and DM heme domains. […] Azole drugs were obtained from Merck Chemicals (Nottingham, UK). All azole compounds used in these and other experiments done in this manuscript were sourced from Sigma Aldrich (Cambridge, UK).
(§3) Data were processed by the subtraction of the spectrum of each successive ligand-bound form (from a specific titration set) from the spectrum of the ligand-free enzyme. This produced a set of difference spectra (for each particular azole titration), from which wavelengths associated with the absorbance minimum (Amin) and maximum (Amax) were readily identified. For each titration point, an absorbance difference value was calculated as Amax minus Amin, using the same wavelength pair throughout an individual experiment. These values were then plotted against the relevant azole ligand concentrations used. […] Assays were done using 25 mM KPi (pH 7) at a constant temperature of 30 °C.

[2] = target: T2, BM3 A82F/F87V double mutant (DM) heme domain (Priestia megaterium, UniProt P14779, A83F/F88V); experiment: biochemical; assay type: binding, Bacillus megaterium; conditions: for Kd: DM (A82F/F87V) BM3 heme domain, 25 mM KPi pH 7, 30 °C
T2 construct: The BM3 heme domain proteins (WT and the DM A82F/F87V variant) used in this study were expressed as described in our previous studies; made in house; host or cells: E. coli BL21 (DE3)
Excerpt: as §1, §2, §3

[3] = WT BM3 heme domain, 25 mM KPi pH 7, 30 °C, NB = no binding seen in UV-visible spectroscopic titrations

T2 sequence (P14779 2-472 A83F/F88V): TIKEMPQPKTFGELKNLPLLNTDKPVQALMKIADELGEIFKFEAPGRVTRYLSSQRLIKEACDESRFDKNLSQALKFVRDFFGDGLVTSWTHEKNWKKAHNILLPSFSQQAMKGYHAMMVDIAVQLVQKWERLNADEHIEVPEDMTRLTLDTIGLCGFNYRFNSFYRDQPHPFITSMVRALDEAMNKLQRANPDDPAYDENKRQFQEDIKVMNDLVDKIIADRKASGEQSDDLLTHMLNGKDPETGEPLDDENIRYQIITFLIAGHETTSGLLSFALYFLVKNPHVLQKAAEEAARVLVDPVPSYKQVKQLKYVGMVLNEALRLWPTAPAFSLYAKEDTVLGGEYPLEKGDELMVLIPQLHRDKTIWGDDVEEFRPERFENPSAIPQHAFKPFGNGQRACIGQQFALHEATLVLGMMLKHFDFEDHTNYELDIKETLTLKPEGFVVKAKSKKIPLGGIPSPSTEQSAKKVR
T1 sequence (P14779 2-472): as the sequence (P14779 2-472 A83F/F88V) above, with F82A, V87F counted along it

| Compound | Kd [1, 3] [µM] | Kd [2] [µM] | Kd ([1]; WT enzyme, Figure S1 legend, hyperbolic or Hill fit) [µM] | Delta Abs Peak (wavelength maximum of absorbance difference spectrum) ([1]; WT BM3 heme domain) [nm] | Delta Abs Trough (wavelength minimum of absorbance difference spectrum) ([1]; WT BM3 heme domain) [nm] | Delta Abs Peak (wavelength maximum of absorbance difference spectrum) ([2]; DM BM3 heme domain) [nm] | Delta Abs Trough (wavelength minimum of absorbance difference spectrum) ([2]; DM BM3 heme domain) [nm] |
| --- | --- | --- | --- | --- | --- | --- | --- |
| Clc1ccccc1C(c1ccccc1)(c1ccccc1)n1ccnc1 [Clotrimazole] | 32.8 ± 1.9 | 0.42 ± 0.02 |  |  |  |  |  |
| Clc1ccc(COC(Cn2ccnc2)c2ccc(Cl)cc2Cl)cc1 (centres unmarked) [Econazole nitrate] | 19.3 ± 1.1 | 0.53 ± 0.04 | 19.3 ± 1.1 |  |  |  |  |
| Clc1ccc(COC(Cn2ccnc2)c2ccc(Cl)cc2Cl)c(Cl)c1 (centres unmarked) [Miconazole] | 6.94 ± 0.15 | 0.63 ± 0.03 |  |  |  |  |  |
| Clc1ccc(CSC(Cn2ccnc2)c2ccc(Cl)cc2Cl)cc1 (centres unmarked) [Sulconazole nitrate] |  |  |  | 433 | 413 | 434 | 413 |
